Paper PMC12040169 (PLOS Biology, 2025)
The other results are listed elsewhere or left out.

Each compound was assayed on T1, C. trachomatis L2/434/Bu expressing GFP (CTL2-GFP). Conditions: total inclusion area; 28.5 h, 10 µM; inhibitor.
T1 construct: L2/434/Bu GFP intracellular growth in HeLa cells
Parameters: species or system HeLa; C. trachomatis total inclusion area by high-content imaging, normalised to DMSO
Method in brief: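 Following bulk GFP and resorufin fluorescence reads, infected cells were fixed, Hoechst-stained and imaged on a high-content platform. Inclusion total area and number per well served as growth proxies; nuclei counts indicated host viability. MICs were derived as for the fluorescence assay.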

| SMILES | % of control remaining |
| --- | --- |
| Cc1nc2n(CC#N)c3ccccc3n2n1 [CBK062670] | 106.859 |
| CCN1CCN(c2ccc(-c3ccc(OCC4CCN(C(=O)OC(C)(C)C)CC4)cn3)cn2)CC1 [CBK174505] | 106.33 |
| CCSc1nnc2c(n1)OC(C1CC=C(C)CC1)Nc1ccccc1-2 (stereo not shown) [CBK262367] | 105.786 |
| COc1cc(NC(=O)c2cc3nc(-c4cccs4)cc(C(F)(F)Cl)n3n2)c(C(C)=O)cc1OC [CBK268312] | 109.776 |
| O=C(c1ccc2ncccc2c1)N1CCC2(CCN(C(=O)c3cc(F)c(F)cc3F)C2)C1 (stereo not shown) [CBK131391] | 106.957 |
| Cc1ccc(/N=N/c2c(O)c(C(=O)Nc3ccc4c(c3)c(=O)[nH]c3ccccc34)cc3ccccc23)c(Cl)c1 [CBK262306] | 106.777 |
| CCCn1nnnc1NCc1cccc(Cl)c1 [CBK288130] | 84.3458 |
| C=CCNC(=O)C1CCN(c2nc3ccccc3n2CC)CC1 [CBK283920] | 68.0627 |
| O=C(Nc1ccccc1)NC(N1CCOCC1)C(Cl)(Cl)Cl (stereo not shown) [CBK261293] | 97.376 |
| COc1ccc(N2CCN(C(=S)c3ccc(OCC(N)=O)cc3)CC2)cc1 [CBK269190] | 88.556 |
| CC(=O)NS(=O)(=O)c1ccc(NC(=O)CCSc2ccc(C)cc2)cc1 [CBK296141] | 61.4094 |
| Cn1nccc1NS(=O)(=O)c1ccc(Br)cc1C(F)(F)F [CBK062082] | 99.8849 |
| O=C(NC(Cc1ccc(O)cc1)C(=O)O)c1ccccc1 (stereo not shown) [CBK260937] | 101.59 |
| CC(Cn1nnc2ccccc21)C(=O)O (stereo not shown) [CBK264727] | 93.386 |
| O=C(O)c1c2c(nc3ccccc13)CCN(Cc1ccccc1)C2 [CBK286805] | 119.916 |
| O=C(CCc1ccncc1)N1CCC(c2cc3ncccc3[nH]2)CC1 [CBK284460] | 110.348 |
| O=S(=O)(Nc1nn(Cc2ccc(C(F)(F)F)cc2)c2ccccc12)c1cccc2nsnc12 [CBK048086] | 97.8486 |
| CC1CCN(C(=O)C[C@@H]2O[C@H](CNS(=O)(=O)c3ccccc3)[C@@H](O)[C@H]2O)CC1 [CBK288927] | 80.3133 |
| Cc1ccn(CCC(=O)NC(C)c2cccnc2)n1 (stereo not shown) [CBK282197] | 90.2123 |
| O=C(CC[C@@H]1CNC(=O)[C@@H]2C[C@H](NC(=O)C3CC3)CN12)Nc1ccccc1 [CBK289006] | 102.01 |
| CN(CCc1cnn(C)c1)C(=O)NCCCN1CCCC1=O [CBK307008] | 77.2333 |
| Cn1c(OCc2cccnc2)nc2c1c(=O)n(Cc1ccc(Cl)c(Cl)c1)c(=O)n2C [CBK267498] | 93.6228 |
| O=C1NC2(CCCN(C(=O)c3cccs3)C2)Oc2ccccc21 (stereo not shown) [CBK284799] | 122.716 |
| O=C(NCCN1CCC(O)(c2cccc(F)c2)CC1)C1CCCCC1 [CBK283281] | 108.838 |
| Cc1cccc(OCC2CCCN(C(=O)CCc3nncn3C)C2)c1 (stereo not shown) [CBK306640] | 98.4592 |
| Cc1nc2c(-c3ccccc3)cnn2c(N2CCCC2)c1C [CBK287799] | 101.241 |
| COCCn1c(SCc2nc3ccccc3nc2C)nc(C)c1C [CBK305651] | 55.9024 |

| SMILES | % of control remaining |
| --- | --- |
| O=C(NC1CC1)[C@@H]1C=CCN1S(=O)(=O)c1ccccc1Cl [CBK285479] | 91.4426 |
| COc1ccc(OCc2nc(-c3cccs3)no2)cc1 [CBK269782] | 74.9034 |
| COc1ccc(-c2nnc3[nH]c(=O)n(C)c(=O)c3n2)cc1OC [CBK263914] | 93.7338 |
| c1ccc(OCCOc2ccc(N3CCNCC3)nn2)cc1 [CBK022577F] | 9.357 |
| O=c1c2ccccc2nc2n1CCN(Cc1cc(F)ccc1F)CC2 [CBK284818] | 109.906 |
| O=[N+]([O-])c1ccccc1S(=O)(=O)N1CCN(c2ccccc2)CC1 [CBK261755] | 103.687 |
| CCc1nnc2sc(-c3ccc(C)c(NC(=O)c4ccc(N5CCCCC5)c([N+](=O)[O-])c4)c3)nn12 [CBK268476] | 94.9819 |
| S=C(NNC(=S)Nc1ccc(Cl)c(Cl)c1)Nc1cccnc1 [CBK268483] | 78.0902 |
| O=C(c1ncc(F)cc1F)N1CCCCC1CN1CCOCC1 (stereo not shown) [CBK305482] | 116.494 |
| CCN(CC)CCN1CCN(c2cc(-c3ccc(OC(F)(F)F)cc3)ncn2)CC1 [CBK037756] | 152.305 |
| CCCn1c(SCC(=O)N2CCOCC2)nc2cc(Cl)ccc2c1=O [CBK306482] | 90.4177 |
| COc1cc(OC)cc(C(=O)Nc2ccc(C(=O)c3ccccc3)cc2)c1 [CBK098732] | 79.9418 |
| Cc1cccc2c1ncn1c(=O)n(CC(=O)Nc3cccc(Cl)c3)nc21 [CBK287815] | 103.507 |
| CCNc1ncc(C(=O)N2CCOC(c3ccc(F)c(C)c3)C2)s1 (stereo not shown) [CBK306375] | 19.6459 |
| COc1ccc(S(=O)(=O)NCCSCc2cccc(Cl)c2)c(Cl)c1Cl [CBK266281] | 130.323 |
| COCCCNC(NC(=O)c1ccc(C)cc1)C(Cl)(Cl)Cl (stereo not shown) [CBK263087] | 93.3726 |
| c1ccc(CN2CCC(c3ccncc3)CC2)nc1 [CBK283505] | 76.0521 |
| CN1CCN(c2nc3c(c(=O)n(C)c(=O)n3C)n2CCSc2nc3ccccc3o2)CC1 [CBK269452] | 100.576 |
| NS(=O)(=O)c1ccc(CNC(=S)NC2CCCC2)cc1 [CBK265802] | 63.1887 |
| Fc1ccc([C@@H]2COC[C@H]2NCc2ccsc2)cc1 [CBK282598] | 117.572 |
| Cc1cc(NC(=O)C2CCN(CCOc3ccccc3F)CC2)no1 [CBK305688] | 48.4398 |
| CCc1ccc2c(COC(=O)c3cccnc3SC)cc(=O)oc2c1 [CBK297486] | 98.9254 |
| CCc1nccn1CC(=O)NC(Cc1ccsc1)c1nccs1 (stereo not shown) [CBK285139] | 66.3849 |
| COc1ccc(C23CCCN(C)C2C[C@@H](O)CC3)cc1OC (stereo partly shown) [CBK016226C] | 18.5003 |
| Cc1ccccc1C(=O)N1C2CCC1CC(O)(Cn1ccnc1C)C2 (stereo not shown) [CBK282740] | 112.97 |
| COc1cc(OC)cc(C(=O)N2CCC3(CC2)CC(=O)c2cc(F)cc(F)c2O3)c1 [CBK168089] | 97.3247 |
| O=C(NCC(O)c1ccc2ccccc2c1)c1cnc(-c2ccccc2)c(-c2ccncc2)c1 (stereo not shown) [CBK037438] | 95.3274 |

| SMILES | % of control remaining |
| --- | --- |
| O=C(Cc1csc(-c2ccc(Cl)cc2)n1)NCC1CCCN1 (stereo not shown) [CBK160982] | 140.469 |
| CNS(=O)(=O)c1cc(C(=O)NCc2ccco2)ccc1OC [CBK270180] | 98.8503 |
| Cc1ccc(/C=C/C(=O)O)cc1S(=O)(=O)N(CCO)CCO [CBK264840] | 108.726 |
| COc1ccccc1CN(CCN(C)C)C(=O)Cc1c(C)[nH]c(=O)[nH]c1=O [CBK286343] | 84.3754 |
| COc1nccnc1OC1CCN(CCCC#N)CC1 [CBK084255] | 102.891 |
| O=C1CCC(=O)N1CCOc1nccnc1OC1CCN(Cc2ccccc2-c2ccccc2)CC1 [CBK084344] | 87.8646 |
| O=C(Nc1cnc(-c2ccc(F)c(Cl)c2)c(-c2cccnc2)n1)c1ccc(N2CCCC2=O)cc1 [CBK036794] | 114.087 |
| Cc1nc(C)c(CCC(=O)N2CCCCC2Cn2cccn2)c(=O)[nH]1 (stereo not shown) [CBK305310] | 91.1545 |
| COc1ccc(Nc2nc(N)nc(CN3CC(C)CC(C)C3)n2)cc1 (stereo not shown) [CBK288154] | 90.1431 |
| CC1(C)CC(=O)c2sc(NC(=O)c3ccc(Oc4ccccc4)cc3)nc2C1 [CBK144106] | 91.3142 |
| FC(F)c1cc([C@@H]2CN(CC3CCOC3)C[C@H]2c2ccccc2)n[nH]1 (stereo partly shown) [CBK285430] | 90.735 |
| O=C(Cc1ccc(F)cc1)Nc1cccc(-c2noc(-c3ccc(F)cc3)n2)c1 [CBK299821] | 76.0439 |
| O=C(O)CCc1ccc(-c2ccc(Cl)cc2)[nH]1 [CBK264781] | 84.7236 |
| O=S(=O)(c1ccc2ccccc2c1)N1CCN(C2CCC(c3ccccc3)CC2)CC1 (stereo not shown) [CBK264152] | 119.744 |
| Cc1nn(CC(=O)NCC2CC2)c(=O)c2cc3sccc3n12 [CBK284025] | 92.9432 |
| Cc1cc(=O)[nH]c(-n2nc(C)cc2NC(=O)c2ccccc2)n1 [CBK287653] | 84.5251 |
| CCn1c(SCC(=O)Nc2cccc([N+](=O)[O-])c2)nnc1-c1cc(Br)ccc1O [CBK267980] | 99.7304 |
| O=C(c1ccco1)N1CCN(c2ncnc3scc(-c4cccs4)c23)CC1 [CBK267208] | 102.347 |
| COc1ccccc1CN(Cc1cccnc1)C(=O)CCC(F)(F)F [CBK307713] | 38.5851 |
| CCn1c(C(CC(C)C)NC(=O)C2CC2)nc2cccnc21 (stereo not shown) [CBK283736] | 79.9159 |
| COc1cc(CNc2cccc(-c3ccsc3)n2)cc(OC)c1 [CBK037592] | 73.6741 |
| Nc1cc(-c2ccco2)nn(Cc2c(F)cccc2Cl)c1=O [CBK282881] | 75.1126 |
| O=C(O)CNC(=O)Cn1ccc2ccc(OCc3ccccc3)cc21 [CBK286644] | 97.261 |
| O=C(NCc1ccc(OC(F)(F)F)cc1)c1cnoc1-c1ccc(F)cc1 [CBK154952] | 101.733 |
| CN1C(=O)c2ccccc2C(=O)[C@@]2(C)CN(C(=O)C3CC3)C[C@@H]12 [CBK284569] | 105.123 |
